Data taken from PubChem BioAssay (NCI).
“And” between values parts separate entries of the source, which are not always exact repeats. Identical values can stand only once.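 Following 48 hours of exposure in 96-well plates, responses at five concentrations were used to interpolate endpoints linearly. GI50 marks 50% less growth. The concentration for full growth arrest is given as TGI.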

Test system: NCI-H322M lung
Assay: NCI-60 cell line screen, 48 h

**Q.** `O=C1c2ccccc2C(=O)N1C/C=N/NS(=O)(=O)c1ccc(F)cc1` was tested. Which TGI did it give?
**A.** > 100 µM

**Q.** For `COc1cc(/C=C/C(=O)Nc2ccc3c(c2)/C(=C\c2cccn2C)C(=O)N3)cc(OC)c1OC`, which GI50 is on record?
**A.** 6.79 µM

**Q.** And the TGI?
**A.** > 100 µM

**Q.** For `COc1ccc(N2C(=O)C3c4[nH]c5ccccc5c4C4CCC(c5ccccc5)CC4C3C2=O)cc1` (configuration not stated), which TGI is on record?
**A.** > 100 µM

**Q.** `COc1ccc(-c2cn3c(nc4ccccc43)c(/C=C/c3cccs3)n2)cc1` was tested. Which TGI did it give?
**A.** > 100 µM

**Q.** `c1ccc2c(c1)c1ccccc1c1n[se]nc21` was tested. Which TGI did it give?
**A.** > 100 µM

**Q.** Which results are given for `COC(=O)C1=C(OC(=O)c2ccccc2)C(C(=O)OC)[C@]2(O)[C@@H](C(=O)OC)C1CC(c1ccccc1OC)[C@@H]2C(=O)OC` (some centres not stated)?
**A.** GI50: 24.4 µM; TGI: > 100 µM

**Q.** With `N#C/C(C(=O)Nc1ccccc1)=C(/N)N1CCCC1` as the compound, how does the TGI read?
**A.** > 100 µM

**Q.** What does the source list for `CC1OC(OC2C(O)C(OCCc3ccc(O)c(O)c3)OC(CO)C2OC(=O)/C=C/c2ccc(O)c(O)c2)C(O)C(O)C1OC1OCC(O)(CO)C1O` (configuration not stated)?
**A.** GI50: > 100 µM; TGI: > 100 µM

**Q.** For `CN(C)c1[se]nc2c1c(=O)n(C)c(=O)n2C`, which TGI is on record?
**A.** > 100 µM

**Q.** What does the source list for `CCn1c2ccccc2c2cc(/C=C(/C#N)C(N)=S)ccc21`?
**A.** GI50: 24.5 µM; TGI: > 82.4 µM

**Q.** With `O=C(Nc1c(Cl)cccc1Cl)c1c(Cl)c(Cl)c(Cl)c(Cl)c1-c1nc2ccccc2[nH]1` as the compound, how does the TGI read?
**A.** > 100 µM

**Q.** Which TGI does the source give for `Sc1ccccc1S` here?
**A.** > 100 µM

**Q.** `CCCCc1c2c(nc3c1CCCC3=O)C(=O)CCC2` was tested. Which TGI did it give?
**A.** > 100 µM

**Q.** For `CCOC(=O)c1ccc2c(c1)[n+](=O)c(C(=O)C1CCCS1)c(C(F)(F)F)n2[O-]` (configuration not stated), which GI50 is on record?
**A.** 1.59 µM

**Q.** What about the TGI of the same compound?
**A.** 3.05 µM

**Q.** With `NC(=S)N/N=C/c1c[nH]c2ccccc12` as the compound, how does the TGI read?
**A.** > 100 µM

**Q.** For `COc1ccc(-c2csc(-n3c(-c4ccccc4)nc4c(Br)cc(Br)cc4c3=O)n2)cc1`, which TGI is on record?
**A.** > 100 µM

**Q.** With `COC(=O)C1(NC(=O)C(CC(=O)OCc2ccccc2)NC(=O)OCc2ccccc2)CCCCCCC1` (configuration not stated) as the compound, how does the TGI read?
**A.** > 100 µM

**Q.** With `CCOC(=O)NC(Nc1ccc(OC(F)(F)F)cc1)(C(F)(F)F)C(F)(F)F` as the compound, how does the TGI read?
**A.** > 100 µM

**Q.** With `Cc1ccc(C)c2c1C/C(=C\c1ccccc1C(=O)O)C2=O` as the compound, how does the TGI read?
**A.** > 100 µM

**Q.** Which results are given for `COc1cc(C(=O)c2c(-c3ccccc3)oc3c(OC)cccc23)cc(OC)c1O`?
**A.** GI50: 0.696 µM; TGI: > 100 µM

**Q.** What does the source list for `Brc1ccc(SCN(CSc2ccc(Br)cc2)Cc2ccccc2)cc1`?
**A.** GI50: 4.34 µM; TGI: 18.4 µM

**Q.** Which results are given for `O=C1C(Cl)=C(Nc2cccc(O)c2)C(=O)N1CCc1ccccc1`?
**A.** GI50: 17.9 µM; TGI: 37.5 µM

**Q.** How did the TGI turn out when `O=C(NCCOC(=O)OCCNC(=O)NC1CCCCC1)NC1CCCCC1` was run?
**A.** > 100 µM

**Q.** Which TGI does the source give for `O=C1C=CC(=O)c2c1ccc1c3ccccc3n(CCCCCCCCn3c4ccccc4c4ccc5c(c43)C(=O)C=CC5=O)c21` here?
**A.** > 100 µM

**Q.** How did the GI50 turn out when `COc1cc(/C=C/C(=O)c2ccc(Nc3nc(Nc4ccc(F)cc4)nc(Nc4ccc(Cl)cc4)n3)cc2)cc(OC)c1OC` was run?
**A.** 39.7 µM

**Q.** And the TGI?
**A.** > 100 µM

**Q.** Which TGI does the source give for `C[C@]1(O)CC[C@H]2[C@@H]3CCc4cc(O)ccc4[C@H]3CC[C@@]21C` here?
**A.** 17.4 µM

**Q.** How did the GI50 turn out when `C[CH2][Sn]([CH2]C)([O]C(=O)c1cccc(OC)c1)[O][Sn]([CH2]C)([CH2]C)[O]C(=O)c1cccc(OC)c1` was run?
**A.** > 72.1 µM

**Q.** What about the TGI of the same compound?
**A.** > 100 µM

**Q.** With `CC1NS(=O)(=O)N(C)C1=O` (configuration not stated) as the compound, how does the TGI read?
**A.** > 100 µM

**Q.** `COc1ccc(C2/C(=C(\O)c3ccccc3)C(=O)C(O)(CC(=O)c3ccccc3)N2c2ccc(OC)cc2)cc1` (configuration not stated) was tested. Which TGI did it give?
**A.** > 78.8 µM

**Q.** `CCCC(=O)N(C(=O)CCC)C1=C(Cl)C(=O)c2ccccc2C1=O` was tested. Which TGI did it give?
**A.** > 100 µM

**Q.** `CCOC(=O)c1csc(CCCCCCc2nc(C(=O)OCC)cs2)n1` was tested. Which TGI did it give?
**A.** > 100 µM

**Q.** For `CO[C@@H]1C[C@H]2[C@@H]3CC[C@H]([C@H](C)CO)[C@@]3(C)CC[C@@H]2[C@@]2(C)CC[C@H]3C[C@]312`, which TGI is on record?
**A.** > 100 µM

**Q.** For `O=[N+]([O-])c1ccc(C2N3CCCCC3[C@H]3CCCCN23)cc1` (some centres not stated), which TGI is on record?
**A.** > 100 µM

**Q.** With `COC1=CC(=O)c2c(ccc3ncnc(N)c23)C1=O` as the compound, how does the TGI read?
**A.** 6.57 µM

**Q.** For `CN1CCCC1c1cccnc1.O=C(O)c1ccccc1O.O=C([O-])c1ccccc1[OH2+].O=C([O-])c1ccccc1[OH2+].O=C([O-])c1ccccc1[OH2+].[Cu+2]` (configuration not stated), which GI50 is on record?
**A.** 57.6 µM

**Q.** And the TGI?
**A.** > 100 µM

**Q.** With `O=C(CN=C(CN(c1ccccc1)c1ccccc1)Oc1c(Cl)cc(Cl)cc1Cl)N1c2ccccc2Sc2ccccc21` as the compound, how does the TGI read?
**A.** > 100 µM

**Q.** How did the TGI turn out when `COc1cc(C)c2c(c1C=O)Oc1c(c(C)c(O)c3c1C(O)OC3=O)OC2=O` (configuration not stated) was run?
**A.** > 100 µM

**Q.** Which TGI does the source give for `Oc1c(CN2CCOCC2)ccc(CN2CCOCC2)c1O` here?
**A.** > 100 µM

**Q.** How did the GI50 turn out when `COc1ccc2c(c1)oc1c(C)c3c(c(C)c12)C(=O)N(N)C3=O` was run?
**A.** > 100 µM

**Q.** What about the TGI of the same compound?
**A.** > 100 µM

**Q.** Which TGI does the source give for `O=[N+]([O-])c1ccc2[nH]c3c(-c4ccccc4)nccc3c2c1` here?
**A.** 71.9 µM

**Q.** With `C[n+]1c2ccccc2n2c3ccccc3c(NCCCN3CCOCC3)c(C#N)c21` as the compound, how does the TGI read?
**A.** 10.8 µM

**Q.** `COC1CCN(N(C)C)O1` (configuration not stated) was tested. Which TGI did it give?
**A.** > 100 µM

**Q.** With `CCN(CC)CCn1ncc2c3c(=O)c4cccnc4n(CCN(CC)CC)c3ccc21` as the compound, how does the TGI read?
**A.** > 10 µM

**Q.** Which TGI does the source give for `Cc1c(NC(=O)/C(=N/NC(=S)N=N)C2C(=O)CC(C)(C)CC2=O)c(O)c2ccccc2c1O` here?
**A.** 54.1 µM

**Q.** `NS(=O)(=O)c1ccc(N=Cc2c(O)[nH]c3ccc4ncsc4c23)cc1` was tested. Which GI50 did it give?
**A.** 1.07 µM and 2.68 µM

**Q.** And the TGI?
**A.** > 19.4 µM

**Q.** Which TGI does the source give for `CC1(C)OC(=O)C(c2cccs2)C(=O)O1` here?
**A.** > 100 µM

**Q.** With `O=C(Nc1cccc(-n2ccc3c(NC(=O)c4ccccc4)nccc32)c1)Nc1ccc(Cl)c(C(F)(F)F)c1` as the compound, how does the GI50 read?
**A.** 1.19 µM

**Q.** What about the TGI of the same compound?
**A.** > 100 µM

**Q.** With `O=C(C=P(c1ccccc1)(c1ccccc1)c1ccccc1)c1ccc(-c2cccc([N+](=O)[O-])c2)cc1` as the compound, how does the TGI read?
**A.** 64.1 µM

**Q.** With `c1cc(-c2ccc(-c3ccc(C4=NCCCN4)cc3)o2)ccc1C1=NCCCN1` as the compound, how does the TGI read?
**A.** > 100 µM

**Q.** Which TGI does the source give for `COc1ccc2c(c1)[C@@H]1c3cc(OC)c(OC)cc3CCN1CCC2` here?
**A.** > 100 µM

**Q.** For `C=C1CC2(OC1=O)C(=O)N(C)c1ccc(I)cc12` (configuration not stated), which GI50 is on record?
**A.** 11.3 µM

**Q.** What about the TGI of the same compound?
**A.** 24 µM

**Q.** `CC1=NCC[N+]1(CCc1ccccc1)Cc1ccccc1` (configuration not stated) was tested. Which TGI did it give?
**A.** > 100 µM

**Q.** Which TGI does the source give for `Cc1cc(C#N)c[n+](C)c1` here?
**A.** > 100 µM

**Q.** How did the TGI turn out when `Nc1c(Br)cc2c(c1Br)Cc1cc(Br)ccc1-2` was run?
**A.** > 100 µM

**Q.** With `C=CCc1cc(OC)c2c(c1)C(OC(C)=O)CC(c1ccc(OC)c(OC)c1)O2` (configuration not stated) as the compound, how does the TGI read?
**A.** > 100 µM

**Q.** For `COC(=O)[C@](NC(=O)OCc1ccccc1)([C@@H](C)S(=O)c1ccc(C)cc1)C(F)(F)F` (some centres not stated), which TGI is on record?
**A.** > 100 µM

**Q.** Which TGI does the source give for `C[n+]1cn(C2=C([O-])c3ccccc3C(=O)/C2=N\S(=O)(=O)c2ccccc2)c2ccccc21` here?
**A.** > 100 µM

**Q.** Which TGI does the source give for `COc1cc(/C=C/C(=O)Oc2ccc(NC(C)=O)cc2)ccc1C(=O)OCc1ccccc1` here?
**A.** > 100 µM

**Q.** With `COc1ccc(C(c2ccc(C(C)C)cc(OC)c2=O)c2ccc(C(C)C)cc(OC)c2=O)cc1` as the compound, how does the TGI read?
**A.** 27.2 µM

**Q.** Which TGI does the source give for `CC(CCOc1c2ccoc2cc2oc(=O)ccc12)C1=CC(=O)C(C)(C)O1` (configuration not stated) here?
**A.** > 100 µM

**Q.** Which TGI does the source give for `CCOC(=O)C1(Cc2ccc3c(c2)CCC3)Cc2cc3c(cc2C1=O)CCC3` (configuration not stated) here?
**A.** > 100 µM

**Q.** Which GI50 does the source give for `N#C/C(=C\c1cn(Cc2ccccc2)c2ccccc12)C(=O)Nc1ncc(Cc2ccccc2Cl)s1` here?
**A.** 2.74 µM

**Q.** What about the TGI of the same compound?
**A.** > 100 µM

**Q.** With `CNc1ccc(/C=C2\C=Cc3ccccc32)cc1` as the compound, how does the TGI read?
**A.** > 100 µM

**Q.** `CC(C)=CCCC(C)[C@H]1CC(O)C2(C)C3=CCC4C(C)(C)[C@@H](O)CC[C@]4(C)C3=CC[C@]12C` (some centres not stated) was tested. Which TGI did it give?
**A.** 83.5 µM

**Q.** With `CCNCCCn1c2c(c3ccc(F)cc3c1=O)C(=O)c1cc(OC)cnc1-2` as the compound, how does the GI50 read?
**A.** 0.436 µM

**Q.** What about the TGI of the same compound?
**A.** 4.81 µM

**Q.** How did the GI50 turn out when `CCOC(=O)/C=C/C1=C(c2ccsc2)c2ccc(OC)cc2CC1` was run?
**A.** 7.31 µM

**Q.** What about the TGI of the same compound?
**A.** > 100 µM

**Q.** Which TGI does the source give for `Nc1nc2[nH]c(=O)cnc2c(=O)[nH]1` here?
**A.** > 125 µM

**Q.** With `CCOC(=O)c1nc2cc(C(F)(F)F)ccc2nc1Oc1ccc(OC)cc1` as the compound, how does the TGI read?
**A.** > 100 µM

**Q.** Which TGI does the source give for `O=C(c1ccc(Cl)cc1Cl)N(/N=C/C=C/c1ccccc1)c1nnc(-c2ccccc2)c(-c2ccccc2)n1` here?
**A.** > 100 µM
